Only a part is listed here, and it is no random draw. For some assays here: At the low end of the ranking the order means little. This is one part of the list. For some assays here: Construct or isoform of the protein are uncertain.
Assays:
Assay in all cases: universal protein binding microarray (PBM)
Conditions in all cases: transcription factors of Arabidopsis thaliana; high values mean tight binding; most listed sequences are background and not binding sites; double strand, one strand shown
GST-ANAC092(1-176) = target: T1, GST-ANAC092(1-176) (UniProt Q9FKA0)
T1 sequence: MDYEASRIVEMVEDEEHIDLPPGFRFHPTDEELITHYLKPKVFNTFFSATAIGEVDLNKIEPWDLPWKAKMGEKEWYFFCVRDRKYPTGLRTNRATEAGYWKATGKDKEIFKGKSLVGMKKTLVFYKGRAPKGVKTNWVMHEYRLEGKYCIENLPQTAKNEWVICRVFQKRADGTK

GST-NTL6(1-168) = GST-NTL6(1-168) (UniProt Q9SCK6)
GST-ANAC019 NAC domain = target: T2, GST-ANAC019 NAC domain (UniProt Q9C932)
T2 sequence: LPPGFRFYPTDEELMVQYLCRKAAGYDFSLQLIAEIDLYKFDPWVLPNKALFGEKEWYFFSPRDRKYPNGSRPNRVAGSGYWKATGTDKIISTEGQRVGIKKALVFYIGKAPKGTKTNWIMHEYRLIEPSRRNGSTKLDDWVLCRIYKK

GST-ANAC055(1-171) = target: T3, GST-ANAC055(1-171) (UniProt Q9LDY8)
T3 sequence: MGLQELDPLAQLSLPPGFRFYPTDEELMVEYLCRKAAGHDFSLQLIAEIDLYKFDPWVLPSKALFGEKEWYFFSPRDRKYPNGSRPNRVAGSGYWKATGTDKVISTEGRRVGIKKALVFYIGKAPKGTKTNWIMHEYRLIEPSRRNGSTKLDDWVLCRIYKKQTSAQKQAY

GST-ATAF1 NAC domain = target: T4, GST-ATAF1 NAC domain (UniProt Q39013)
T4 sequence: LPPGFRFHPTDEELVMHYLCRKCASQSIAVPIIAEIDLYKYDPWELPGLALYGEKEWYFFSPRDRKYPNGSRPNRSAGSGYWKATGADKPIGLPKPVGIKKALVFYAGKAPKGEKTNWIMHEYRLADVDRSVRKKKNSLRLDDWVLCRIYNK

[1] = target: T5, GST-ANAC092(1-285) full length (UniProt Q9FKA0)
T5 sequence: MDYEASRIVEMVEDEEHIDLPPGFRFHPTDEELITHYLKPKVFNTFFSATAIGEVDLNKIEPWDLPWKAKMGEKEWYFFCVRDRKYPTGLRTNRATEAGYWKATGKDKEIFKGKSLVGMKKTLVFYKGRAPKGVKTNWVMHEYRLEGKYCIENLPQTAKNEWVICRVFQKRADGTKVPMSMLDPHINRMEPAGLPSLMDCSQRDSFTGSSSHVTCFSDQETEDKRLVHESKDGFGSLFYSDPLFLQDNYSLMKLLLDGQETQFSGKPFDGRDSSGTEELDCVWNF

GST-NAP(1-166) = target: T6, GST-NAP(1-166) (UniProt O49255)
T6 sequence: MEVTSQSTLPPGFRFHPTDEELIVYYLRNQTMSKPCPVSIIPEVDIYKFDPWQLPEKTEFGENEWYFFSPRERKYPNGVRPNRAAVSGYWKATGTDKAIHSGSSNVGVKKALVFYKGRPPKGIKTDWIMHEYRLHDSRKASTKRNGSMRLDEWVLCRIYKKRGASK

GST-NST2(1-184) = target: T7, GST-NST2(1-184) (UniProt Q9M274)
T7 sequence: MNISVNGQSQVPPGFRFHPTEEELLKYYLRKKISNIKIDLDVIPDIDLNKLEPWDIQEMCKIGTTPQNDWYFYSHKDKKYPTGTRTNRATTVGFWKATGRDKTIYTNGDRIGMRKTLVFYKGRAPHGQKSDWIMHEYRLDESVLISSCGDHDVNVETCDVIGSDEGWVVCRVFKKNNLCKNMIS

GST-NTL8 NAC domain = target: T8, GST-NTL8 NAC domain (UniProt Q9XIN7)
T8 sequence: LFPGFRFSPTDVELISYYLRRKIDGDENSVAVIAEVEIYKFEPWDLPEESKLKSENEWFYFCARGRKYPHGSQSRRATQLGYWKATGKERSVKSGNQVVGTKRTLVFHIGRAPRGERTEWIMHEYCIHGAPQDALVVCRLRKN

GST-SND1(1-203) = target: T9, GST-SND1(1-203) (UniProt Q9LPI7)
T9 sequence: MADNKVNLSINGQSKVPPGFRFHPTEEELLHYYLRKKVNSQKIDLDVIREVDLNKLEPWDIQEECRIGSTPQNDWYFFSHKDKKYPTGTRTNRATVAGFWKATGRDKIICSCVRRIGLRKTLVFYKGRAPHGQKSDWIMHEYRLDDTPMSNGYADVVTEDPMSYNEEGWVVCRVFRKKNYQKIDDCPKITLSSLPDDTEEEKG

GST-VND3 NAC domain = target: T10, GST-VND3 NAC domain (UniProt Q9FH59)
T10 sequence: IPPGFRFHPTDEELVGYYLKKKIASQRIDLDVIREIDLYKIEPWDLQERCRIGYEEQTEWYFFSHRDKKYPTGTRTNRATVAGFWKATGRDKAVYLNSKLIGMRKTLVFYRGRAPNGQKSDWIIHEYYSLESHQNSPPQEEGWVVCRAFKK

GST-VND7 NAC domain = target: T11, GST-VND7 NAC domain (UniProt Q9C8W9)
T11 sequence: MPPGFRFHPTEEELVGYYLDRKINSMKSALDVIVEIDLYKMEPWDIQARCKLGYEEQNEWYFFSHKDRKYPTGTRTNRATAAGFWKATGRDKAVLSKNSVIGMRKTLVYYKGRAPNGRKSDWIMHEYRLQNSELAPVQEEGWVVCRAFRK

[2] = target: T12, GST-VOZ2 (Arabidopsis thaliana) (UniProt Q9SLB9)
T12 sequence: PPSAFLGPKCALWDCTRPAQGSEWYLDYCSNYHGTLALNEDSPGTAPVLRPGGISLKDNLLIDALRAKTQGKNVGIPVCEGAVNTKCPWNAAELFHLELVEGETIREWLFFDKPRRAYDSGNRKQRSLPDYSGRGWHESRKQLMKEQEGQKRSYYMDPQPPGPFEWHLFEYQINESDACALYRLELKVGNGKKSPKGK

GST-WRKY1(266-371) = GST-WRKY1(266-371) (UniProt Q9SI37)
Sequence of GST-WRKY1(266-371) (Q9SI37 266-371, chain 1 of 2): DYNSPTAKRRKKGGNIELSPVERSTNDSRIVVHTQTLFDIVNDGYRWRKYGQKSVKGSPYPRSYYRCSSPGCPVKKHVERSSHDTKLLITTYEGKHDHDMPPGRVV

Sequence of UniProt Q9SCK6 (Q9SCK6 1-168): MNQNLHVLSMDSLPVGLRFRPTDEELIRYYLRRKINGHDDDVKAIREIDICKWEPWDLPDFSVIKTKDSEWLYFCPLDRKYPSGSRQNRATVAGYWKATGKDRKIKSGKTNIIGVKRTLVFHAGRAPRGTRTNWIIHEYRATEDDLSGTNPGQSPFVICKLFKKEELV

| Sequence | binding signal (GST-ANAC092(1-176)) | binding signal (GST-NTL6(1-168)) | binding signal (GST-ANAC019 NAC domain) | binding signal (GST-ANAC055(1-171)) | binding signal (GST-ATAF1 NAC domain) | binding signal [1] | binding signal (GST-NAP(1-166)) | binding signal (GST-NST2(1-184)) | binding signal (GST-NTL8 NAC domain) | binding signal (GST-SND1(1-203)) | binding signal (GST-VND3 NAC domain) | binding signal (GST-VND7 NAC domain) | binding signal [2] | binding signal (GST-WRKY1(266-371)) |
| --- | --- | --- | --- | --- | --- | --- | --- | --- | --- | --- | --- | --- | --- | --- |
| ACCGGTCA | -0.145 E-score | -0.104 E-score | -0.06 E-score | -0.112 E-score | -0.0819 E-score | -0.167 E-score | -0.042 E-score | -0.0935 E-score | -0.0124 E-score | -0.0794 E-score | -0.0851 E-score | -0.0892 E-score | -0.0894 E-score | 0.463 E-score |
| CCTGGTCA | -0.0922 E-score | -0.108 E-score | -0.125 E-score | -0.177 E-score | -0.16 E-score | -0.219 E-score | -0.129 E-score | -0.17 E-score | -0.104 E-score | -0.0995 E-score | -0.128 E-score | -0.122 E-score | -0.244 E-score | 0.454 E-score |
| ATCTTGAC | -0.0906 E-score | -0.134 E-score | -0.0223 E-score | -0.0711 E-score | 0.0474 E-score | 0.0308 E-score | 0.0459 E-score | -0.0278 E-score | -0.0884 E-score | -0.0185 E-score | -0.0267 E-score | -0.0446 E-score | -0.113 E-score | 0.47 E-score |
| AGTGGTCA | -0.092 E-score | -0.0526 E-score | -0.129 E-score | 0.0341 E-score | -0.0146 E-score | -0.135 E-score | -0.088 E-score | -0.0548 E-score | -0.0788 E-score | -0.114 E-score | -0.0316 E-score | -0.114 E-score | -0.0243 E-score | 0.436 E-score |
| CAAGGTCA | -0.1 E-score | -0.0365 E-score | -0.0405 E-score | -0.0913 E-score | -0.165 E-score | -0.0623 E-score | -0.0376 E-score | -0.0763 E-score | -0.0104 E-score | -0.0332 E-score | -0.0954 E-score | -0.19 E-score | -0.0846 E-score | 0.425 E-score |
| CGAGGTCA | 0.016 E-score | -0.0218 E-score | -0.0278 E-score | -0.0808 E-score | -0.265 E-score | -0.0398 E-score | -0.00966 E-score | -0.163 E-score | – | -0.083 E-score | -0.126 E-score | -0.0968 E-score | -0.11 E-score | 0.425 E-score |
| GACCAGTC | -0.0584 E-score | -0.173 E-score | -0.045 E-score | -0.153 E-score | -0.0894 E-score | -0.213 E-score | -0.14 E-score | -0.109 E-score | -0.0917 E-score | -0.194 E-score | -0.11 E-score | -0.146 E-score | -0.023 E-score | 0.406 E-score |
| GGGTCAGA | -0.147 E-score | -0.157 E-score | -0.0324 E-score | -0.222 E-score | -0.173 E-score | -0.18 E-score | -0.114 E-score | -0.174 E-score | 0.0446 E-score | -0.0596 E-score | -0.171 E-score | -0.0695 E-score | -0.0219 E-score | 0.432 E-score |
| GACGACCA | -0.0675 E-score | -0.0667 E-score | -0.0734 E-score | -0.0663 E-score | -0.208 E-score | -0.163 E-score | 0.00882 E-score | -0.125 E-score | -0.154 E-score | -0.123 E-score | -0.201 E-score | -0.167 E-score | -0.127 E-score | 0.43 E-score |
| GGTCTGAC | -0.152 E-score | -0.244 E-score | -0.043 E-score | -0.195 E-score | -0.15 E-score | -0.146 E-score | -0.171 E-score | -0.186 E-score | -0.155 E-score | -0.15 E-score | -0.0102 E-score | -0.0685 E-score | -0.0264 E-score | 0.441 E-score |
| GCTGACTA | -0.0502 E-score | -0.186 E-score | 0.00334 E-score | -0.141 E-score | 0.0088 E-score | -0.0256 E-score | -0.111 E-score | -0.163 E-score | 0.00179 E-score | -0.00275 E-score | -0.0961 E-score | -0.0899 E-score | -0.0876 E-score | 0.417 E-score |
| ACGACCAG | -0.0588 E-score | -0.152 E-score | -0.0712 E-score | -0.0654 E-score | -0.139 E-score | -0.0464 E-score | -0.0873 E-score | -0.162 E-score | -0.117 E-score | -0.13 E-score | -0.137 E-score | -0.152 E-score | -0.0999 E-score | 0.403 E-score |
